# Measurements reported in paper PMC3063768, “Rhesus TRIM5α Disrupts the HIV-1 Capsid at the Inter-Hexamer Interfaces” (PLoS Pathogens, 2011).
# B1: Human TRIM5α coiled-coil and SPRY domains (TRIM5αhu CC-SPRY, […]) (domain or fragment)
# chain: not shown
# notes: TRIM5α, human, coiled-coil and B30.2/SPRY domains, […]; Dimer by SEC-MALS (89 kDa observed, 45.6 kDa theoretical); also called human TRIM5α CC-SPRY; source: SF21 insect cells, recombinant baculovirus, purified (Ni-NTA, Superdex 200, Hi-Trap QP or StrepTrap-HP)
# B2: Rhesus macaque TRIM5α coiled-coil and SPRY domains (TRIM5αrh CC-SPRY, […]) (domain or fragment)
# chain: not shown
# notes: TRIM5α, rhesus macaque, coiled-coil and B30.2/SPRY domains, […]; Dimer by SEC-MALS (92 kDa observed, 46.1 kDa theoretical); The C-terminal His tag was used for Ni-NTA-Nanogold labelling; also called CC-SPRYrh; rhesus TRIM5α CC-SPRY; source: SF21 insect cells, recombinant baculovirus, purified (Ni-NTA, Superdex 200, Hi-Trap QP or StrepTrap-HP); not shown: His6, C-terminal, kept
# Target: the molecule itself
# Experiment: SEC-MALS; analytical Superdex200 with in-line multi-angle light scattering; about 100 µL of 2 mg/mL protein; 25 mM sodium phosphate pH 7.5, 250 mM NaCl, 10% glycerol, 0.02% sodium azide
row,Protein,stoichiometry N
1,B1,2
2,B2,2
